MIC of nasopharyngeal S. pneumoniae isolates by broth microdilution (range and time not stated); higher = less susceptible. No active / inactive call per row; the paper counts penicillin above 0.06 and amoxicillin above 0.5 mg/L as non-susceptible (EUCAST). The lowest value, 0.01, is taken as the floor ('<='); the source prints it plain. Penicillin G is assumed for 'penicillin'. Isolates are numbered anew. PBP alleles are the type numbers of penicillin-binding proteins 1a, 2b and 2x; equal numbers mean equal sequences.
What was measured:
amoxicillin = compound: CC1(C)S[C@@H]2[C@H](NC(=O)[C@H](N)c3ccc(O)cc3)C(=O)N2[C@H]1C(=O)O [amoxicillin]; assay: Broth microdilution.
penicillin G = compound: CC1(C)S[C@@H]2[C@H](NC(=O)Cc3ccccc3)C(=O)N2[C@H]1C(=O)O [penicillin G]; assay: Broth microdilution.

| Test System | MIC (amoxicillin) | MIC (penicillin G) |
| --- | --- | --- |
| Streptococcus pneumoniae isolate 259 (PBP alleles 1a 2b 2x: 0_0_2, serotype: 10A) | ≤ 0.01 µg/mL | ≤ 0.01 µg/mL |
| Streptococcus pneumoniae isolate 260 (PBP alleles 1a 2b 2x: 12_0_0, serotype: 31) | ≤ 0.01 µg/mL | ≤ 0.01 µg/mL |
| Streptococcus pneumoniae isolate 261 (PBP alleles 1a 2b 2x: 0_0_2, serotype: 35B) | ≤ 0.01 µg/mL | 0.03 µg/mL |
| Streptococcus pneumoniae isolate 262 (PBP alleles 1a 2b 2x: 2_0_2, serotype: 21) | ≤ 0.01 µg/mL | ≤ 0.01 µg/mL |
| Streptococcus pneumoniae isolate 263 (PBP alleles 1a 2b 2x: 2_0_6, serotype: 23A) | ≤ 0.01 µg/mL | 0.03 µg/mL |
| Streptococcus pneumoniae isolate 264 (PBP alleles 1a 2b 2x: 0_0_0, serotype: 23B) | ≤ 0.01 µg/mL | ≤ 0.01 µg/mL |
| Streptococcus pneumoniae isolate 265 (PBP alleles 1a 2b 2x: 7_67_1, serotype: 23B1) | 0.06 µg/mL | 0.25 µg/mL |
| Streptococcus pneumoniae isolate 266 (PBP alleles 1a 2b 2x: 0_4_2, serotype: 6C) | 0.03 µg/mL | 0.03 µg/mL |
| Streptococcus pneumoniae isolate 267 (PBP alleles 1a 2b 2x: 2_6_0, serotype: 11A) | ≤ 0.01 µg/mL | ≤ 0.01 µg/mL |
| Streptococcus pneumoniae isolate 268 (PBP alleles 1a 2b 2x: 2_0_6, serotype: 33F) | ≤ 0.01 µg/mL | 0.03 µg/mL |
| Streptococcus pneumoniae isolate 269 (PBP alleles 1a 2b 2x: 86_16_126, serotype: Non-typeable/NCC2a) | 0.25 µg/mL | 0.125 µg/mL |
| Streptococcus pneumoniae isolate 270 (PBP alleles 1a 2b 2x: 25_7_56, serotype: Non-typeable/NCC2b) | 1 µg/mL | 1 µg/mL |
| Streptococcus pneumoniae isolate 271 (PBP alleles 1a 2b 2x: 2_6_0, serotype: 11A) | ≤ 0.01 µg/mL | 0.03 µg/mL |
| Streptococcus pneumoniae isolate 272 (PBP alleles 1a 2b 2x: 2_0_2, serotype: 21) | ≤ 0.01 µg/mL | 0.03 µg/mL |
| Streptococcus pneumoniae isolate 273 (PBP alleles 1a 2b 2x: 2_3_New, serotype: 3) | 0.03 µg/mL | 0.03 µg/mL |
| Streptococcus pneumoniae isolate 274 (PBP alleles 1a 2b 2x: 2_6_0, serotype: 11A) | ≤ 0.01 µg/mL | 0.03 µg/mL |
| Streptococcus pneumoniae isolate 275 (PBP alleles 1a 2b 2x: 2_0_2, serotype: 15B/C) | ≤ 0.01 µg/mL | 0.03 µg/mL |
| Streptococcus pneumoniae isolate 276 (PBP alleles 1a 2b 2x: 2_0_2, serotype: 15B/C) | ≤ 0.01 µg/mL | 0.03 µg/mL |
| Streptococcus pneumoniae isolate 277 (PBP alleles 1a 2b 2x: 4_7_7, serotype: 35B) | 1 µg/mL | 1 µg/mL |
| Streptococcus pneumoniae isolate 278 (PBP alleles 1a 2b 2x: 7_1_1, serotype: 23B1) | 0.06 µg/mL | 0.25 µg/mL |

| Test System | MIC (amoxicillin) | MIC (penicillin G) |
| --- | --- | --- |
| Streptococcus pneumoniae isolate 279 (PBP alleles 1a 2b 2x: 0_0_0, serotype: 15B/C) | ≤ 0.01 µg/mL | 0.03 µg/mL |
| Streptococcus pneumoniae isolate 280 (PBP alleles 1a 2b 2x: 86_82_162, serotype: Non-typeable/NCC2a) | ≤ 0.01 µg/mL | ≤ 0.01 µg/mL |
| Streptococcus pneumoniae isolate 281 (PBP alleles 1a 2b 2x: 23_27_77, serotype: 12F) | 0.125 µg/mL | 0.125 µg/mL |
| Streptococcus pneumoniae isolate 282 (PBP alleles 1a 2b 2x: 2_0_2, serotype: 21) | ≤ 0.01 µg/mL | 0.03 µg/mL |
| Streptococcus pneumoniae isolate 283 (PBP alleles 1a 2b 2x: 0_0_3, serotype: 35F) | ≤ 0.01 µg/mL | 0.03 µg/mL |
| Streptococcus pneumoniae isolate 284 (PBP alleles 1a 2b 2x: 2_0_6, serotype: 23A) | 0.03 µg/mL | 0.03 µg/mL |
| Streptococcus pneumoniae isolate 285 (PBP alleles 1a 2b 2x: New_New_New, serotype: 13) | 0.125 µg/mL | 0.25 µg/mL |
| Streptococcus pneumoniae isolate 286 (PBP alleles 1a 2b 2x: 1_0_0, serotype: 15B/C) | ≤ 0.01 µg/mL | 0.03 µg/mL |
| Streptococcus pneumoniae isolate 287 (PBP alleles 1a 2b 2x: 0_4_2, serotype: 6C) | 0.03 µg/mL | 0.03 µg/mL |
| Streptococcus pneumoniae isolate 288 (PBP alleles 1a 2b 2x: 2_0_0, serotype: 15B/C) | ≤ 0.01 µg/mL | 0.03 µg/mL |
| Streptococcus pneumoniae isolate 289 (PBP alleles 1a 2b 2x: 2_4_0, serotype: 38) | ≤ 0.01 µg/mL | ≤ 0.01 µg/mL |
| Streptococcus pneumoniae isolate 290 (PBP alleles 1a 2b 2x: 2_0_0, serotype: 17F) | ≤ 0.01 µg/mL | 0.03 µg/mL |
| Streptococcus pneumoniae isolate 291 (PBP alleles 1a 2b 2x: 2_6_0, serotype: 11A) | ≤ 0.01 µg/mL | ≤ 0.01 µg/mL |
| Streptococcus pneumoniae isolate 292 (PBP alleles 1a 2b 2x: 2_3_2, serotype: 3) | 0.03 µg/mL | 0.03 µg/mL |
| Streptococcus pneumoniae isolate 293 (PBP alleles 1a 2b 2x: 1_0_0, serotype: 9N) | 0.03 µg/mL | 0.03 µg/mL |
| Streptococcus pneumoniae isolate 294 (PBP alleles 1a 2b 2x: 0_0_3, serotype: 35F) | ≤ 0.01 µg/mL | 0.03 µg/mL |
| Streptococcus pneumoniae isolate 295 (PBP alleles 1a 2b 2x: 23_4_139, serotype: 19F) | ≤ 0.01 µg/mL | 0.06 µg/mL |
| Streptococcus pneumoniae isolate 296 (PBP alleles 1a 2b 2x: 2_0_2, serotype: 3) | ≤ 0.01 µg/mL | ≤ 0.01 µg/mL |
| Streptococcus pneumoniae isolate 297 (PBP alleles 1a 2b 2x: 2_0_2, serotype: 3) | 0.03 µg/mL | ≤ 0.01 µg/mL |
| Streptococcus pneumoniae isolate 298 (PBP alleles 1a 2b 2x: 7_1_1, serotype: 23B1) | 0.03 µg/mL | 0.125 µg/mL |

| Test System | MIC (amoxicillin) | MIC (penicillin G) |
| --- | --- | --- |
| Streptococcus pneumoniae isolate 299 (PBP alleles 1a 2b 2x: 2_3_2, serotype: 3) | ≤ 0.01 µg/mL | ≤ 0.01 µg/mL |
| Streptococcus pneumoniae isolate 300 (PBP alleles 1a 2b 2x: 2_0_2, serotype: 15B/C) | ≤ 0.01 µg/mL | ≤ 0.01 µg/mL |
| Streptococcus pneumoniae isolate 301 (PBP alleles 1a 2b 2x: 86_82_162, serotype: Non-typeable/NCC2a) | ≤ 0.01 µg/mL | ≤ 0.01 µg/mL |
| Streptococcus pneumoniae isolate 302 (PBP alleles 1a 2b 2x: 1_2_2, serotype: 22F) | ≤ 0.01 µg/mL | ≤ 0.01 µg/mL |
| Streptococcus pneumoniae isolate 303 (PBP alleles 1a 2b 2x: 2_0_3, serotype: 7C) | ≤ 0.01 µg/mL | 0.03 µg/mL |
| Streptococcus pneumoniae isolate 304 (PBP alleles 1a 2b 2x: 7_12_New, serotype: 11A) | 0.25 µg/mL | 0.25 µg/mL |
| Streptococcus pneumoniae isolate 305 (PBP alleles 1a 2b 2x: 2_6_0, serotype: 11A) | ≤ 0.01 µg/mL | ≤ 0.01 µg/mL |
| Streptococcus pneumoniae isolate 306 (PBP alleles 1a 2b 2x: 11_0_0, serotype: 17F) | ≤ 0.01 µg/mL | 0.03 µg/mL |
| Streptococcus pneumoniae isolate 307 (PBP alleles 1a 2b 2x: 0_6_2, serotype: 16F) | ≤ 0.01 µg/mL | 0.03 µg/mL |
| Streptococcus pneumoniae isolate 308 (PBP alleles 1a 2b 2x: 1_0_0, serotype: 15A) | ≤ 0.01 µg/mL | 0.03 µg/mL |
| Streptococcus pneumoniae isolate 309 (PBP alleles 1a 2b 2x: 0_0_148, serotype: 35B) | ≤ 0.01 µg/mL | 0.06 µg/mL |
| Streptococcus pneumoniae isolate 310 (PBP alleles 1a 2b 2x: 2_0_2, serotype: 15B/C) | ≤ 0.01 µg/mL | 0.03 µg/mL |
| Streptococcus pneumoniae isolate 311 (PBP alleles 1a 2b 2x: 24_27_28, serotype: 15A) | 0.03 µg/mL | 0.25 µg/mL |
| Streptococcus pneumoniae isolate 312 (PBP alleles 1a 2b 2x: 78_0_0, serotype: Serogroup 24) | ≤ 0.01 µg/mL | 0.03 µg/mL |
| Streptococcus pneumoniae isolate 313 (PBP alleles 1a 2b 2x: 2_10_2, serotype: 10B) | 0.03 µg/mL | 0.03 µg/mL |
| Streptococcus pneumoniae isolate 314 (PBP alleles 1a 2b 2x: 2_6_0, serotype: 11A) | ≤ 0.01 µg/mL | ≤ 0.01 µg/mL |
| Streptococcus pneumoniae isolate 315 (PBP alleles 1a 2b 2x: 2_0_2, serotype: 21) | ≤ 0.01 µg/mL | 0.03 µg/mL |
| Streptococcus pneumoniae isolate 316 (PBP alleles 1a 2b 2x: 2_6_0, serotype: 11A) | ≤ 0.01 µg/mL | ≤ 0.01 µg/mL |

— the supplement of paper PMC11055344
